Screen size: about 44,000 compounds; about 340 (0.77%) were called active. About 5% were inconclusive and are not listed. Calls follow the shape of the dose curve; as a rule, active = well fitted inhibition curve with a large enough effect; inconclusive = small, poorly fitted or top-dose-only effect; inactive = flat fitted curve, though single readings scatter. The list shows a part of the results.
Test: Acumen qHTS Assay for Inhibitors of the mTORC1 Signaling Pathway in MEF (Tsc2-/-, p53-/-) Cells: Sytravon;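 also: plate controls were DMSO for no effect and rapamycin for full effect; nearly all actives have a fitted effect of over 50% in size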
Details: phospho-rpS6 immunofluorescence/PI, 24 h; series mostly up to 38.3 µM; activity change, negative = inhibition: at the top concentration
Procedure, shortened: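 Tsc2-/-, p53-/- mouse embryonic fibroblasts (empty-vector line) exposed to compound 24 hrs at 37 C, fixed, immunostained for phospho-rpS6 and counterstained with propidium iodide. Acumen laser scanning gives % positive cells from Alexa 488/PI ratio, thresholded using 7.5 nM rapamycin; PI count gives viability.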

Activity change, negative = inhibition, inactive:
CCCCN(CC)CCNC(=O)c1cc2c(=O)[nH]c3ccccc3c2n1C -4.81%, CCCCn1c(NCc2ccc(OC)cc2O)nc2ccccc21 5.56%, O=C(NCc1ccc(F)cc1)c1ccc2c(O)c(S(=O)(=O)c3ccccc3)c(=O)[nH]c2c1 3.83%, O=C(NCc1ccccc1)c1ccc(CSc2nc3cccnc3n2Cc2cccc(F)c2)cc1 -2.77%, CCCCn1nc(NC(=O)c2cccc(Cl)c2)c2cc3ccccc3nc21 0.556%, Cc1ccccc1NS(=O)(=O)c1ccc2[nH]cc(C(=O)N3CCCCC3)c(=O)c2c1 1.29%, COc1ccc(C)cc1-n1nnc(-c2nc(-c3ccccc3Cl)no2)c1N -18.6%, Cc1ccccc1CN1C(=O)c2ccccc2Sc2ccc(C(=O)N3CCCC3)cc21 -1.1%, CCCc1nc2ccccc2n2c(-c3ccccc3)c3c(=O)n(C)c(=O)n(C)c3c12 -0.73%, CCN(C(=O)c1coc(=O)c2ccccc12)c1ccccc1C 0%, CC(C)c1ccc(C(=O)Nc2cc(-c3ccccc3F)nn2-c2ccccc2)cc1 1.46%, Cc1ccc(-c2nnn3c2nc(NCCc2ccc(Cl)cc2)c2ccccc23)cc1 0.739%, CCCOc1ccc(CNC(=O)Cn2ncn3c(cc4sc(CC)cc43)c2=O)cc1 -7.79%, Cc1c(C(=O)N2CCCCCC2)c(S(=O)(=O)NCc2ccc(Br)cc2)c(C)n1C -3.18%, Cc1ccc(-c2nc3ccccn3c2Nc2ccccc2C)s1 -4.85%, COC(=O)c1ccc(NC(=O)NCCn2nnc3cc(S(=O)(=O)N(C)C)ccc32)cc1 3.31%, CCOc1ccc(CNC(=O)c2ccc3nc(C(C)C)oc3c2)cc1 0%, COc1ccc(Nc2cc(C(=O)NC3CCC(C)CC3)c3ccccc3n2)cc1OC (centres undefined) -7.39%, CCOc1ccc(C2Nc3c(C)cccc3-c3cc(C)nn32)cc1 (centres undefined) -12.6%, CCOc1ccccc1C(=O)Nc1c(C(=O)Nc2ccc(F)cc2)oc2ccccc12 -16.9%, Cn1c(=O)c(=O)n(C)c2cc(S(=O)(=O)CCC(=O)Nc3ccc(F)cc3)ccc21 -3.27%, Cc1oc2ncnc(N3CCOCC3)c2c1C(=O)N(Cc1ccccc1)C(C)C 3.77%, O=c1c(S(=O)(=O)c2ccccc2)cn(Cc2cccc(F)c2)c2cc(N3CCOCC3)c(F)cc12 0.486%, COc1ccc(OC(=O)c2nc(SCc3ccc(F)cc3)ncc2Cl)cc1 2.49%, Cc1ccc(C2=NN(CC(=O)NCCC(C)C)C(=O)CC2)cc1 -14%, COc1cccc(-c2nnc(-c3ccccc3NC(=O)c3cccc(C(F)(F)F)c3)o2)c1 0.327%, CCOC(=O)c1cc(OC(=O)c2ccc(C)cc2)n(-c2ccccc2)n1 -17.1%, CCOc1ccc(NC(=O)c2cnn3c2NC(c2cccc(OC)c2)=CC3c2ccccc2)cc1 (centres undefined) -7.62%, COc1ccc(NC(=O)c2ccco2)cc1NC(=O)COc1ccccc1 -5.88%, Cc1ccc(C(=O)Nc2nnc(S(=O)(=O)N3c4ccccc4CC3C)s2)cc1 (centres undefined) 0.712%, Cn1c(=O)n(C)c2cc(N3CCOCC3)c(NC(=O)c3ccccc3Br)cc21 -8.62%, COc1ccc(CNC(=O)CN2C(=O)CSc3ccc(S(=O)(=O)N4CCOCC4)cc32)c(OC)c1 -3.99%, COc1cccc(CNC(=O)c2cc(S(=O)(=O)N3CCCCC3)cn2C)c1 -11.7%, CC(=O)Nc1ccc(NC(=O)CSc2nc3ccccc3nc2N2CCC(C)CC2)cc1 -1.4%, COc1ccc(NC(=O)C(Cc2ccccc2)n2cccc2)cc1OC (centres undefined) -8.29%, COc1cc(-c2noc(CCC(=O)Nc3cc(C)ccc3C)n2)cc(OC)c1OC 2.52%, Cc1ccccc1Cn1c2ccccc2c2cnn(CC(=O)NCCc3ccccc3)c(=O)c21 -15.2%, COc1ccc(NC(=O)CCS(=O)(=O)c2ccc3nc(C)sc3c2)cc1Cl -4.11%, Cc1ccc(-n2ncc(C(=O)NCCc3c[nH]c4ccccc34)c2C2CCN(C(=O)OC(C)(C)C)CC2)cc1C -0.291%, Cc1ccc(OC(=O)CSc2nnc(-c3cccs3)o2)cc1 4.6%, CCn1c(=O)c2sccc2n2c(CCC(=O)N3CCN(c4ccc(C(C)=O)cc4)CC3)nnc12 -11.1%, Cc1ccccc1C(=O)N(Cc1nc(-c2ccc(Cl)cc2)no1)C(C)C 3.42%, CNC(=O)c1c(NC(=O)/C=C/c2ccccc2Cl)sc2c1CCC2 8.07%, O=C(Cn1c(-c2cccs2)cc2cc(Cl)ccc21)N1CCN(c2ccccc2F)CC1 -14%, CC(NC(=O)CN(c1ccc(Cl)cc1Cl)S(=O)(=O)c1ccccc1)c1ccccc1 (centres undefined) -1.51%, CCC(=O)Nc1ccc(CC)cc1-c1nc2ccccc2n(Cc2ccccc2)c1=O 1.2%, COc1ccc(C(=O)c2oc3ccccc3c2NC(=O)COc2cccc(C)c2C)cc1 -2.61%, CC1CCC(NC(=O)c2cc3c(Cl)nc4ccccc4c3s2)CC1 (centres undefined) 0.491%, O=C(Cn1ccc2cc(S(=O)(=O)N3CCCCC3)ccc21)NCc1cccc(Cl)c1 -6.14%, CCOc1ccccc1NC(=O)Cn1c(=O)n(Cc2ccccc2)c(=O)c2cccnc21 -1.87%, COc1ccc(F)cc1S(=O)(=O)Nc1cccc(-c2ccc(N3CCCCCC3)nn2)c1 8.88%, CC(=O)Nc1ccccc1-c1nc2ccccc2n(Cc2cccc(Br)c2)c1=O -6.44%, Cc1cc(C)c(NC(=O)Cn2nnc(-c3ccccc3)n2)c(C)c1 -0.822%, Cc1cc(S(=O)(=O)NCC(c2ccco2)S(=O)(=O)c2ccccc2)ccc1F (centres undefined) -4.3%, CCOC(=O)C(C)NC(=O)C1CCN(c2ncnc3c2nc2n3CCCCC2)CC1 (centres undefined) -5.51%, O=C(CN1CCCN(Cc2ccccc2Cl)S1(=O)=O)NCc1ccccc1 -3.79%, Cc1cccn2c(=O)cc(COc3cccc(NC(=O)COc4ccc(F)cc4)c3)nc12 12.5%, CCc1nnc(NC(=O)C(=O)c2cc(C)n(-c3ccccc3)c2C)s1 0%, CC(C)N(Cc1ccccc1)C(=O)Cn1ncc2c([nH]c3ccccc32)c1=O -0.174%, O=C(CSc1nc2c([nH]c3ccccc32)c(=O)n1-c1ccc(Cl)cc1)N1CCOCC1 2.76%, CCC1CCCCN1CC(=O)Nc1cc(C)c2c(=O)oc3ccccc3c2n1 (centres undefined) -22.6%, Cc1ccc(NC(=O)N2CCC(c3ccccc3)C2)cc1C (centres undefined) -7.92%, Cc1ccc(-c2nonc2NC(=O)c2ccc(F)cc2)cc1C 0.335%, Cc1cccc(NC(=O)CSc2c(C)cnc3c2c(=O)n(C)c(=O)n3C)c1C -0.174%, O=S(=O)(NCC(c1ccco1)N1CCOCC1)c1cc(F)ccc1F (centres undefined) 0.534%, CCc1nn(C(CC)C(=O)NCc2ccc(F)cc2)c(=O)c2cc3occc3n12 (centres undefined) 1.63%, COc1cc(C(=O)NCC(c2ccco2)S(=O)(=O)c2ccccc2)cc(OC)c1OC (centres undefined) 3.92%, O=C(CCc1ccccc1)N(Cc1cccnc1)c1nc2c(F)cccc2s1 -4.98%, CCCOc1ccc(C(=O)N(Cc2ccc(N(C)C)cc2)CC2CCCO2)cc1 (centres undefined) -0.435%, CC1=C(C(=O)Nc2ccccc2)C(CC(C)C)n2nc(SCc3ccccc3C)nc2N1 (centres undefined) -1.61%, O=C(c1cc2c(s1)-c1ccccc1OC2)N1CCN(c2ccccc2)CC1 -1.07%, Cc1ccc(C(=O)Nc2ccc(OCc3cc(=O)n4c(C)csc4n3)cc2)cc1 1.77%, CCCN(CCC)CCCNC(=O)Cn1ncc2c3ccccc3n(Cc3ccccc3)c2c1=O 1.69%, Cc1ccc(NC(=O)Cc2csc(C)n2)c(C)c1 2.75%, Cc1cccc(NC(=O)CSc2nncn2C)c1 3.57%, Cc1ccc(Nc2c(-c3ccc(O)cc3)nc3cccc(C)n23)cc1 5.68%, Cc1nc(-c2ccc(Cl)cc2)sc1CCNC(=O)c1cccs1 -0.711%, CCCOc1ccc(-c2nc(SC)[nH]c(=O)c2C#N)cc1OC -4.15%, CCN(CC)CCN(C(=O)c1ccco1)c1nc2ccc(Br)cc2s1 -0.736%, CC(=O)Nc1nonc1-c1nnc(SCC(=O)Nc2cc(C)cc(C)c2)n1-c1ccccc1 0.0268%, Cc1ccc(S(=O)(=O)c2c(Nc3cc(F)ccc3F)sc(C(=O)c3ccc(F)cc3)c2N)cc1 -9.4%, O=C(c1ccc2c(c1)N(Cc1ccccc1)C(=O)c1ccccc1S2(=O)=O)N1CCCCCC1 0.984%, CC(C)(C)c1ccc(Oc2nc3ccccn3c(=O)c2/C=C(\C#N)c2nc3ccccc3s2)cc1 -20.2%, CCc1ccc(NC(=O)CC2C(=O)N(c3ccc(C)cc3)C(=O)N2C2CCCC2)cc1 (centres undefined) -7.27%, COc1ccc2c(c1)CCc1sc(NC(=O)c3ccc(Br)cc3)nc1-2 4.62%, CN(C)c1oc(-c2ccc(COc3ccccc3)o2)nc1C#N -12.5%, COc1ccc(N2CCN(S(=O)(=O)CCNC(=O)c3cc(=O)c4ccccc4o3)CC2)cc1 4.92%, COc1cc(NC(=O)Cn2ccn(-c3cc(C)cc(C)c3)c(=O)c2=O)cc(OC)c1 10.5%, Cc1cc(C)cc(NC(=O)CSc2nc(=O)[nH]c3c2CCC3)c1 -10.7%, CC(C)CN(CCNC(=O)c1cn(C)c2ccc(S(=O)(=O)N3CCCCCC3)cc2c1=O)CC(C)C -0.443%, Cc1cc(C)cc(NC(=O)CSc2nc3ncccc3[nH]2)c1 -13.1%, Cc1ccc(NC(=O)C(=O)NCC(c2ccc3c(c2)OCO3)N2CCN(C)CC2)c(C)c1 (centres undefined) 0.472%, Cc1ccc(NC(=O)C(Cc2ccccc2)NS(=O)(=O)c2ccc3c(c2)CCC(=O)N3)cc1 (centres undefined) 1.18%, CS(=O)(=O)c1cccc(-c2nnc(NC(=O)c3ccc4c(c3)OCCO4)o2)c1 2.22%, CCOC(=O)N1CCC(NC(=O)c2cnn(-c3ccc(C)cc3C)c2C2CCN(C(=O)OC(C)(C)C)CC2)CC1 1.88%, CC(=O)Nc1cccc(Nc2nc3ccccc3n3c(C)nnc23)c1 7.84%, O=C(CN1CCCN(Cc2ccc(F)cc2)S1(=O)=O)Nc1ccc2c(c1)OCCO2 0%, CC(=O)c1nn(-c2ccc(OC(F)(F)F)cc2)nc1Nc1ccccc1 4.91%, CCc1nn(CCCC(=O)NCc2ccc(C)cc2)c(=O)c2cc3occc3n12 -8.1%

From PubChem BioAssay AID493208 (National Center for Advancing Translational Sciences (NCATS), 2011)
